# According to the supplement of paper PMC8728848:
# The list shows a part of the results.
# B1: Clec18C (Homo sapiens) (protein)
# chain: MLHPETSPGRGHLLAVLLALLGTAWAEVWPPQLQEQAPMAGALNRKESFLLLSLHNRLRSWVQPPAADMRRLDWSDSLAQLAQARAALCGTPTPSLASGLWRTLQVGWNMQLLPAGLVSFVEVVSLWFAEGQRYSHAAGECARNATCTHYTQLVWATSSQLGCGRHLCSAGQAAIEAFVCAYSPRGNWEVNGKTIVPYKKGAWCSLCTASVSGCFKAWDHAGGLCEVPRNPCRMSCQNHGRLNISTCHCHCPPGYTGRYCQVRCSLQCVHGRLREEECSCVCDIGYGGAQCATKVHFPFHTCDLRIDGDCFMVSSEADTYYRARMKCQRKGGVLAQIKSQKVQDILAFYLGRLETTNEVIDSDFETRNFWIGLTYKTAKDSFRWATGEHQAFTSFAFGQPDNHGFGNCVELQASAAFNWNNQRCKTRNRYICQFAQEHISRWGPGS
# Key:
# Assay in all cases: glycan array binding signal (z-score within array); higher = stronger binding
# Conditions in all cases: glycan notation: IUPAC condensed, linker removed
# [1] = target: Fuc(a1-2)[Gal(a1-4)]Gal(b1-4)GlcNAc
# Outline: (§1)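 Negative Z-scores can be read as non-binding. The Z-score is calculated within each array and then averaged across arrays of one protein sequence at different concentrations or buffers and across linkers. Arrays, 3228 in all, were curated from the Consortium for Functional Glycomics database and kept only where the protein sequence was available.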
# [2] = target: Fuc(a1-2)[GalNAc(a1-3)]Gal
# Outline: as §1
# [3] = target: Fuc(a1-2)[GalNAc(a1-3)]Gal(b1-3)GalNAc(a1-3)[Fuc(a1-2)]Gal(b1-4)GlcNAc
# Outline: as §1
# [4] = target: Fuc(a1-2)[GalNAc(a1-3)]Gal(b1-3)GalNAc(b1-3)Gal(a1-4)Gal(b1-4)Glc
# Outline: as §1
# [5] = target: Fuc(a1-2)[GalNAc(a1-3)]Gal(b1-3)GlcNAc
# Outline: as §1
# [6] = target: Fuc(a1-2)[GalNAc(a1-3)]Gal(b1-3)GlcNAc(b1-2)Man(a1-3)[Fuc(a1-2)[GalNAc(a1-3)]Gal(b1-3)GlcNAc(b1-2)Man(a1-6)]Man(b1-4)GlcNAc(b1-4)GlcNAc
# Outline: as §1
# [7] = target: Fuc(a1-2)[GalNAc(a1-3)]Gal(b1-3)GlcNAc(b1-2)Man(a1-3)[Fuc(a1-2)[GalNAc(a1-3)]Gal(b1-3)GlcNAc(b1-2)Man(a1-6)]Man(b1-4)GlcNAc(b1-4)[Fuc(a1-6)]GlcNAc
# Outline: as §1
# [8] = target: Fuc(a1-2)[GalNAc(a1-3)]Gal(b1-3)GlcNAc(b1-3)GalNAc
# Outline: as §1
# [9] = target: Fuc(a1-2)[GalNAc(a1-3)]Gal(b1-3)GlcNAc(b1-6)GalNAc
# Outline: as §1
# [10] = target: Fuc(a1-2)[GalNAc(a1-3)]Gal(b1-4)Glc
# Outline: as §1
# [11] = target: Fuc(a1-2)[GalNAc(a1-3)]Gal(b1-4)GlcNAc
# Outline: as §1
# [12] = target: Fuc(a1-2)[GalNAc(a1-3)]Gal(b1-4)GlcNAc(b1-2)Man
# Outline: as §1
# [13] = target: Fuc(a1-2)[GalNAc(a1-3)]Gal(b1-4)GlcNAc(b1-2)Man(a1-3)[Fuc(a1-2)[GalNAc(a1-3)]Gal(b1-4)GlcNAc(b1-2)Man(a1-6)]Man(b1-4)GlcNAc(b1-4)GlcNAc
# Outline: as §1
# [14] = target: Fuc(a1-2)[GalNAc(a1-3)]Gal(b1-4)GlcNAc(b1-2)Man(a1-3)[Fuc(a1-2)[GalNAc(a1-3)]Gal(b1-4)GlcNAc(b1-2)Man(a1-6)]Man(b1-4)GlcNAc(b1-4)[Fuc(a1-6)]GlcNAc
# Outline: as §1
# [15] = target: Fuc(a1-2)[GalNAc(a1-3)]Gal(b1-4)GlcNAc(b1-3)Gal(b1-4)GlcNAc
# Outline: as §1
# [16] = target: Fuc(a1-2)[GalNAc(a1-3)]Gal(b1-4)GlcNAc(b1-3)Gal(b1-4)GlcNAc(b1-3)Gal(b1-4)GlcNAc
# Outline: as §1
# [17] = target: Fuc(a1-2)[GalNAc(a1-3)]Gal(b1-4)GlcNAc(b1-3)GalNAc
# Outline: as §1
# [18] = target: Fuc(a1-2)[GalNAc(a1-3)]Gal(b1-4)GlcNAc(b1-3)[Fuc(a1-2)[GalNAc(a1-3)]Gal(b1-4)GlcNAc(b1-6)]GalNAc
# Outline: as §1
# [19] = target: Fuc(a1-2)[GalNAc(a1-3)]Gal(b1-4)GlcNAc(b1-6)GalNAc
# Outline: as §1
# [20] = target: Fuc(a1-2)[GalNAc(a1-3)]Gal(b1-4)[Fuc(a1-3)]GlcNAc
# Outline: as §1
# [21] = target: Fuc(a1-2)[GalNAc(a1-3)]Gal(b1-4)[Fuc(a1-3)]GlcNAc(b1-3)GalNAc
# Outline: as §1
# [22] = target: Fuc(a1-2)[GalNAc(a1-4)]Gal(b1-4)GlcNAc
# Outline: as §1
# [23] = target: Fuc(a1-2)[GalNAc(b1-3)]Gal
# Outline: as §1
# Fuc(a1-3)GlcNAc = target: Fuc(a1-3)GlcNAc
# Outline: as §1
# [24] = target: Fuc(a1-3)[Gal(b1-4)]Glc6S
# Outline: as §1
# [25] = target: Fuc(a1-3)[Gal(b1-4)]GlcNAc
# Outline: as §1
# [26] = target: Fuc(a1-3)[Gal(b1-4)]GlcNAc(b1-2)Man
# Outline: as §1
# [27] = target: Fuc(a1-3)[Gal(b1-4)]GlcNAc(b1-2)Man(a1-3)[Fuc(a1-3)[Gal(b1-4)]GlcNAc(b1-2)Man(a1-6)]Man(b1-4)GlcNAc(b1-4)GlcNAc
# Outline: as §1
# [28] = target: Fuc(a1-3)[Gal(b1-4)]GlcNAc(b1-2)Man(a1-3)[Fuc(a1-3)[Gal(b1-4)]GlcNAc(b1-2)Man(a1-6)]Man(b1-4)GlcNAc(b1-4)[Fuc(a1-6)]GlcNAc
# Outline: as §1
# [29] = target: Fuc(a1-3)[Gal(b1-4)]GlcNAc(b1-3)Gal(b1-3)[Fuc(a1-4)]GlcNAc
# Outline: as §1
# [30] = target: Fuc(a1-3)[Gal(b1-4)]GlcNAc(b1-3)Gal(b1-4)[Fuc(a1-3)]GlcNAc
# Outline: as §1
# [31] = target: Fuc(a1-3)[Gal(b1-4)]GlcNAc(b1-3)Gal(b1-4)[Fuc(a1-3)]GlcNAc(b1-3)Gal(b1-4)[Fuc(a1-3)]GlcNAc
# Outline: as §1
# [32] = target: Fuc(a1-3)[Gal(b1-4)]GlcNAc(b1-3)GalNAc
# Outline: as §1
# [33] = target: Fuc(a1-3)[Gal(b1-4)]GlcNAc(b1-6)GalNAc
# Outline: as §1
# [34] = target: Fuc(a1-3)[Gal(b1-4)]GlcNAc(b1-6)[Gal(b1-3)GlcNAc(b1-3)]Gal(b1-4)Glc
# Outline: as §1
# [35] = target: Fuc(a1-3)[Gal(b1-4)]GlcNAc6S
# Outline: as §1
# [36] = target: Fuc(a1-3)[Gal3S(b1-4)]Glc
# Outline: as §1
# [37] = target: Fuc(a1-3)[Gal3S(b1-4)]GlcNAc
# Outline: as §1
binder,measurement,setting,value
B1,glycan array binding signal (z-score),[1],-0.135
same,glycan array binding signal (z-score),[2],0.158
same,glycan array binding signal (z-score),[3],-0.467
same,glycan array binding signal (z-score),[4],0.597
same,glycan array binding signal (z-score),[5],-0.273
same,glycan array binding signal (z-score),[6],-0.181
same,glycan array binding signal (z-score),[7],-0.225
same,glycan array binding signal (z-score),[8],-0.186
same,glycan array binding signal (z-score),[9],-0.223
same,glycan array binding signal (z-score),[10],-0.557
same,glycan array binding signal (z-score),[11],-0.476
same,glycan array binding signal (z-score),[12],-0.166
same,glycan array binding signal (z-score),[13],-0.427
same,glycan array binding signal (z-score),[14],-0.451
same,glycan array binding signal (z-score),[15],-0.522
same,glycan array binding signal (z-score),[16],-0.308
same,glycan array binding signal (z-score),[17],-0.571
same,glycan array binding signal (z-score),[18],-0.427
same,glycan array binding signal (z-score),[19],-0.11
same,glycan array binding signal (z-score),[20],-0.156
same,glycan array binding signal (z-score),[21],0.975
same,glycan array binding signal (z-score),[22],0.446
same,glycan array binding signal (z-score),[23],-0.191
same,glycan array binding signal (z-score),Fuc(a1-3)GlcNAc,-0.581
same,glycan array binding signal (z-score),[24],-0.305
same,glycan array binding signal (z-score),[25],-0.349
same,glycan array binding signal (z-score),[26],-0.513
same,glycan array binding signal (z-score),[27],0.293
same,glycan array binding signal (z-score),[28],0.028
same,glycan array binding signal (z-score),[29],-0.546
same,glycan array binding signal (z-score),[30],-0.261
same,glycan array binding signal (z-score),[31],-0.621
same,glycan array binding signal (z-score),[32],-0.506
same,glycan array binding signal (z-score),[33],0.062
same,glycan array binding signal (z-score),[34],0.839
same,glycan array binding signal (z-score),[35],1.33
same,glycan array binding signal (z-score),[36],2.58
same,glycan array binding signal (z-score),[37],0.34
